Results published in the BET-seq Pho4 binding data (Le et al. 2018).
The list shows a part of the results. Values were computed here from the reads of four pooled replicates and scatter widely.

target: T1, Pho4 (S. cerevisiae) (UniProt P07270); experiment: relative binding free energy (BET-seq); higher = weaker binding; conditions: reference: library average
T1 sequence: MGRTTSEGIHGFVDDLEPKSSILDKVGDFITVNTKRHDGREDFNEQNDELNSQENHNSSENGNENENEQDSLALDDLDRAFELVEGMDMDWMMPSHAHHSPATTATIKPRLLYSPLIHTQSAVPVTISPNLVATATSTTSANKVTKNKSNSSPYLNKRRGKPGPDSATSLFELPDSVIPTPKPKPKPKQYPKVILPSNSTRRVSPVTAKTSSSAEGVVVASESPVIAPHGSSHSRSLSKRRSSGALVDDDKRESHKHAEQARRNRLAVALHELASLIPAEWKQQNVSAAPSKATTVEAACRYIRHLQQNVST

Sequence | relative binding free energy
GTTGGCACGTGTTCAG | -0.06 kcal/mol
GGGGTCACGTGACAAG | 0.19 kcal/mol
TGGCACACGTGGTGGA | -0.08 kcal/mol
AGGATCACGTGGGTCG | 0.01 kcal/mol
AGTTTCACGTGGGACA | 0.21 kcal/mol
CGTCTCACGTGTATTT | 0.32 kcal/mol
AATCGCACGTGGGTGA | -0.15 kcal/mol
GTTGGCACGTGCGACG | -0.15 kcal/mol
TATCACACGTGTAGGT | 0.09 kcal/mol
GGGGTCACGTGAATCT | 0.52 kcal/mol
ATGTGCACGTGATTTA | 0.14 kcal/mol
GATAGCACGTGCGTTA | 0.09 kcal/mol
GGTCTCACGTGGCGGT | 0.09 kcal/mol
TTTGTCACGTGTGTAA | 0.08 kcal/mol
AGGGTCACGTGTGTCG | 0.17 kcal/mol
TTTTTCACGTGGTGCG | 0.33 kcal/mol
AAGTGCACGTGGAGAG | 0.1 kcal/mol
GATGGCACGTGTGGAA | 0.08 kcal/mol
AGTCGCACGTGCGGGT | -0.1 kcal/mol
CTTTCCACGTGGGTTG | 0.04 kcal/mol
ATTGGCACGTGACGAG | 0.07 kcal/mol
ATGGTCACGTGTGGGA | 0.14 kcal/mol
TGCATCACGTGGTGGT | 0.16 kcal/mol
TATAGCACGTGCGCGG | -0.27 kcal/mol
ATGTTCACGTGGGACA | 0.17 kcal/mol
GGGGCCACGTGCGTTA | -0.12 kcal/mol

Sequence | relative binding free energy
GAGTTCACGTGATGGC | 0.39 kcal/mol
GTACGCACGTGTATTT | -0.02 kcal/mol
GTCATCACGTGAGGTG | 0.43 kcal/mol
AGGGTCACGTGTTATC | 0.22 kcal/mol
CTAATCACGTGTAGTT | 0.08 kcal/mol
CCGGGCACGTGGGTGA | -0.18 kcal/mol
GTTGACACGTGCGGGG | -0.04 kcal/mol
TGGTACACGTGGGATA | 0.1 kcal/mol
GAGTTCACGTGGCTAG | 0.47 kcal/mol
TAATTCACGTGTAGGG | 0.19 kcal/mol
TGTTACACGTGATTTT | 0.2 kcal/mol
TTGGACACGTGAGATT | 0.29 kcal/mol
CTGTGCACGTGTGGCG | 0 kcal/mol
TGTGACACGTGAAGGA | 0.3 kcal/mol
ATTTGCACGTGTCTGA | -0.05 kcal/mol
TTTGTCACGTGGGATA | 0.02 kcal/mol
TTTGTCACGTGTTAAT | 0.21 kcal/mol
TTAAACACGTGTGGCA | 0.06 kcal/mol
AGAGGCACGTGTTGAA | 0.01 kcal/mol
CTGGTCACGTGTTGAG | 0.09 kcal/mol
TGGGTCACGTGTTAGC | 0.21 kcal/mol
AGTGGCACGTGTAAGT | 0.02 kcal/mol
TCATACACGTGGGATT | 0.07 kcal/mol
TGGTTCACGTGAAGAG | 0.4 kcal/mol
CTCGGCACGTGGGGAT | -0.24 kcal/mol
ACTTGCACGTGGTTGT | -0.18 kcal/mol

Sequence | relative binding free energy
GGGGGCACGTGAATAC | 0.3 kcal/mol
TTATGCACGTGTATCT | -0.15 kcal/mol
CTTGTCACGTGAAGGA | 0.26 kcal/mol
ATTAGCACGTGGAGTA | -0.05 kcal/mol
TCGTTCACGTGGCATG | 0.12 kcal/mol
CAGGACACGTGGGATT | 0.01 kcal/mol
AGTGGCACGTGGTCAT | -0.21 kcal/mol
GGATGCACGTGTTAGG | 0.14 kcal/mol
AACTGCACGTGGGGAG | -0.16 kcal/mol
GTTCGCACGTGTTATA | -0.04 kcal/mol
GGAAGCACGTGTGTAA | -0.2 kcal/mol
ATACGCACGTGGGTAG | -0.13 kcal/mol
AGTGACACGTGAGTAG | 0.15 kcal/mol
TGTGACACGTGTTGGA | 0.11 kcal/mol
TGTCTCACGTGAAGCG | 0.39 kcal/mol
GGTCTCACGTGCGTGG | 0.13 kcal/mol
GGTTTCACGTGGCTTA | 0.28 kcal/mol
ATGTCCACGTGTTGTT | 0.03 kcal/mol
ATGTTCACGTGCATGA | 0.16 kcal/mol
CTTGGCACGTGACTGG | 0.02 kcal/mol
TGATACACGTGATGGT | 0.24 kcal/mol
TGTCCCACGTGGAGTG | -0.07 kcal/mol
TTTCTCACGTGGTGGG | 0.38 kcal/mol
CGTGGCACGTGAACGT | 0.09 kcal/mol
TTACGCACGTGTAGGG | -0.02 kcal/mol
TTAGACACGTGTCGGG | 0.03 kcal/mol

Sequence | relative binding free energy
ATTGACACGTGGTTAA | -0.02 kcal/mol
AAATGCACGTGGGTTT | -0.15 kcal/mol
TGAGACACGTGGACGG | -0.02 kcal/mol
GAAGGCACGTGCGAGG | -0.27 kcal/mol
ATGAGCACGTGTAGGT | -0.15 kcal/mol
GTCCGCACGTGTGTTT | 0.13 kcal/mol
ATATTCACGTGAGAGG | 0.23 kcal/mol
GTTGTCACGTGGTTGG | 0.19 kcal/mol
AGGCGCACGTGTTGTA | -0.11 kcal/mol
TAGGGCACGTGTTCGA | -0.21 kcal/mol
TGGGTCACGTGTCTGG | 0.04 kcal/mol
TTAATCACGTGATGAG | 0.02 kcal/mol
TTAGTCACGTGTTACA | 0.15 kcal/mol
AATAGCACGTGTTTGA | -0.17 kcal/mol
GAGAGCACGTGGTTAG | -0.15 kcal/mol
TGGTGCACGTGGGTGT | -0.04 kcal/mol
TAAAGCACGTGATGAA | 0.22 kcal/mol
GTGCACACGTGTGCGT | 0.09 kcal/mol
TAGGTCACGTGTGATT | 0.24 kcal/mol
GCAGTCACGTGTTTTT | 0.14 kcal/mol
TCTAGCACGTGGTGGT | -0.09 kcal/mol
AGGAGCACGTGGTGGC | -0.14 kcal/mol
GTGTTCACGTGTGTTT | 0.35 kcal/mol
TGGGTCACGTGAGCGA | 0.27 kcal/mol
GTAGGCACGTGTTAAT | 0.09 kcal/mol
AAGGTCACGTGTGTGG | 0.15 kcal/mol

Sequence | relative binding free energy
AGTGGCACGTGGGGTT | -0.22 kcal/mol
TTTTCCACGTGTAAAT | 0.26 kcal/mol
TTAAGCACGTGAAAGT | 0.12 kcal/mol
TGCTTCACGTGTGTGT | 0.32 kcal/mol
TTAGACACGTGGCTTA | -0.03 kcal/mol
TGAGGCACGTGTGGCT | -0.09 kcal/mol
GCTTTCACGTGAATGG | 0.52 kcal/mol
TGGGGCACGTGTTCAG | 0 kcal/mol
TATGACACGTGCGTTT | 0.08 kcal/mol
TGGGTCACGTGTCAAG | 0.22 kcal/mol
GGGATCACGTGTCGTT | 0.2 kcal/mol
TATCGCACGTGGTGTC | -0.14 kcal/mol
AGTTGCACGTGGCGGA | 0 kcal/mol
TTATCCACGTGATGGG | 0.08 kcal/mol
ATTTACACGTGGAGAG | 0.02 kcal/mol
TATCACACGTGTGAGG | 0.23 kcal/mol
TTATTCACGTGGGGCT | 0.31 kcal/mol
AAAAGCACGTGCTGGT | -0.03 kcal/mol
AGGGTCACGTGGTAGT | 0.12 kcal/mol
TTTTTCACGTGGTTAG | 0.33 kcal/mol
AAGTTCACGTGGGATA | 0.19 kcal/mol
AGGAGCACGTGTAGTT | 0 kcal/mol
AGGGTCACGTGGCTTG | 0.08 kcal/mol
TAGGGCACGTGCAGAT | -0.15 kcal/mol
GTATGCACGTGATTCG | 0.15 kcal/mol
TAGGTCACGTGTTTCT | 0.08 kcal/mol

Sequence | relative binding free energy
GAGGTCACGTGTCGGA | 0.4 kcal/mol
CATGTCACGTGTTTGC | 0.1 kcal/mol
TTTTACACGTGTGCAT | 0.09 kcal/mol
TATACCACGTGGGGTT | -0.31 kcal/mol
CTTATCACGTGTGGTA | 0.14 kcal/mol
TTGGACACGTGATGAG | 0.18 kcal/mol
GGCAACACGTGTGTGG | 0.02 kcal/mol
CAGGACACGTGTTTGT | -0.01 kcal/mol
CAATGCACGTGGTGGT | -0.09 kcal/mol
AGGGTCACGTGGTGGG | 0.07 kcal/mol
TTTAGCACGTGTATCG | -0.07 kcal/mol
AAGTTCACGTGTGAGT | 0.41 kcal/mol
TAATGCACGTGAAGGT | 0.13 kcal/mol
AGCTGCACGTGCTGGG | -0.15 kcal/mol
GGAGACACGTGTTTTG | 0.1 kcal/mol
TTAGTCACGTGCATGG | 0 kcal/mol
CGTGGCACGTGATTAT | -0.03 kcal/mol
CTATTCACGTGGTAGG | 0.26 kcal/mol
GGTCGCACGTGCTGTG | -0.11 kcal/mol
AGGACCACGTGGTTGG | -0.05 kcal/mol
AGAGACACGTGGGGAG | -0.18 kcal/mol
TGGTTCACGTGCATTG | 0.31 kcal/mol
TAGTTCACGTGGGAGT | 0.24 kcal/mol
GGCTGCACGTGTTGGG | -0.03 kcal/mol
AGGGTCACGTGTCGCG | 0.17 kcal/mol
AGTAGCACGTGTTGGA | -0.04 kcal/mol

Sequence | relative binding free energy
CGAGACACGTGAGTGG | 0.06 kcal/mol
ATGGGCACGTGGTATG | -0.23 kcal/mol
AGTGGCACGTGCGGGA | -0.08 kcal/mol
GGATGCACGTGGGTCG | -0.09 kcal/mol
ATGTGCACGTGTTTAA | -0.07 kcal/mol
GATAACACGTGTAAGT | 0.23 kcal/mol
ATCTGCACGTGTGTTA | -0.1 kcal/mol
AGTGTCACGTGGGTAG | -0.04 kcal/mol
TAAAACACGTGGCGGG | 0.15 kcal/mol
GTTCGCACGTGGCGTT | -0.11 kcal/mol
GTGTACACGTGCCGGT | 0.07 kcal/mol
AAGCGCACGTGGATGT | 0 kcal/mol
TTGCGCACGTGAGGGT | 0.23 kcal/mol
TTTTTCACGTGTTAAA | 0.35 kcal/mol
CGTCTCACGTGGAGGG | 0.02 kcal/mol
CGTTGCACGTGGTTCA | -0.01 kcal/mol
CGAGTCACGTGTAATG | 0.14 kcal/mol
GGGTGCACGTGGTGAC | -0.18 kcal/mol
TATGGCACGTGGACTG | -0.17 kcal/mol
TTACGCACGTGGGTGT | -0.26 kcal/mol
GGGCTCACGTGGAGGT | 0.09 kcal/mol
GATGACACGTGGAGTT | 0.15 kcal/mol
AAGGACACGTGTATGG | 0 kcal/mol
GAGTTCACGTGAAGTT | 0.37 kcal/mol
ATTGCCACGTGGGCGT | -0.25 kcal/mol
ATGTCCACGTGGTAGG | -0.17 kcal/mol

Sequence | relative binding free energy
ATGTGCACGTGTAAGT | 0.09 kcal/mol
GGCGTCACGTGCGTTG | 0.19 kcal/mol
TGTATCACGTGTTTCT | 0.14 kcal/mol
TGGGCCACGTGATTAG | 0.08 kcal/mol
GGGGACACGTGCAGGC | 0.03 kcal/mol
GTTAACACGTGTGAAA | 0.29 kcal/mol
TGGTTCACGTGGCTTA | 0.1 kcal/mol
CGTTGCACGTGCGTTT | -0.16 kcal/mol
ATAACCACGTGTAGGT | -0.01 kcal/mol
CTAAGCACGTGGGAGG | -0.22 kcal/mol
TGGGGCACGTGCTTTG | -0.19 kcal/mol
GGGGGCACGTGCCTAT | -0.03 kcal/mol
TACGTCACGTGATTAG | 0.11 kcal/mol
GTTATCACGTGCAAGT | 0.16 kcal/mol
TCATACACGTGTTTGG | -0.06 kcal/mol
TTGTTCACGTGTGACG | 0.22 kcal/mol
TAGGACACGTGAATTG | 0.3 kcal/mol
TATTGCACGTGGTGTG | -0.13 kcal/mol
GGCGGCACGTGAGTTT | 0.23 kcal/mol
TCAGACACGTGTAGGT | 0.02 kcal/mol
CGGCTCACGTGAGTGG | 0.3 kcal/mol
TGATACACGTGTATGG | -0.02 kcal/mol
TATTTCACGTGGTTTT | 0.27 kcal/mol
CTTTACACGTGGTTCG | 0.03 kcal/mol
GGCGTCACGTGTGTAA | 0.27 kcal/mol
GTCGTCACGTGGAGGT | 0 kcal/mol

Sequence | relative binding free energy
GTAAACACGTGTTAGA | 0.18 kcal/mol
ATTTTCACGTGAAACG | 0.37 kcal/mol
GCGTACACGTGATATG | 0.27 kcal/mol
TGGTGCACGTGTAGTC | 0.09 kcal/mol
TAGTACACGTGATTTA | 0.18 kcal/mol
TGTGACACGTGTGTCA | 0.04 kcal/mol
TCGTTCACGTGGTTTC | 0.35 kcal/mol
GATTACACGTGACGGT | 0.36 kcal/mol
TTGGTCACGTGTTTAA | 0.08 kcal/mol
ATGGCCACGTGCGGGG | -0.11 kcal/mol
AATGTCACGTGTTGCT | -0.06 kcal/mol
AAGGGCACGTGTAGTC | -0.09 kcal/mol
GTTGTCACGTGTGAGT | 0.28 kcal/mol
TTATACACGTGGGGAA | 0 kcal/mol
GAGATCACGTGTGGGG | 0.24 kcal/mol
TGGACCACGTGGGGGC | -0.27 kcal/mol
TAGGCCACGTGGTCGG | -0.23 kcal/mol
AGTGTCACGTGTACCG | 0.05 kcal/mol
TTCAGCACGTGGCGTG | -0.18 kcal/mol
AACGTCACGTGGGGGC | -0.08 kcal/mol
GGCTACACGTGTATGT | 0.27 kcal/mol
GTTGACACGTGTTGTA | 0.05 kcal/mol
